Data published in the supplement of paper PMC10126150.
Sequences with one replicate were seen in a single cluster, so their values are uncertain.

Each sequence was assayed on ATP (assay: switch fluorescence ratio, 500 uM ATP over buffer (Cy3 cluster intensity, sum of 5 cycles each) (fold (ratio)); higher = stronger signal-on switching upon ATP binding; sequences stand for … in TCGTCGGCAGCGTCAGATGTGTATAAGAGACAGTTTTTTTTTTTTTTTTTTTTTTTTT…TC). Details: aptamer strand: ATP DNA aptamer (quencher-CACCTGGGGGAGTATTGCGGAGGAAGG + anchor), 100 nM annealed; ATP concentration: 500 uM; one replicate.
How it was run: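 Five buffer/ATP imaging cycles were run on Cy3-labelled switching-strand clusters on a modified Illumina MiSeq flow-cell, with NaOH stripping and re-annealing between cycles. In each cycle, clusters annealed to 100 nM quencher-labelled ATP aptamer were imaged in selection buffer, then after 15 min with 500 uM ATP at 22 °C. Per cluster, the fluorescence ratio is summed target-cycle over summed buffer-cycle Cy3 intensity, averaged per switch-domain sequence. Only clusters within 100-1000 RFU were kept.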
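Note: ATP exposure 15 min at 22 °C before imaging.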

Question: For CGTGATATGT, which switch fluorescence ratio is on record?
Answer: Its switch fluorescence ratio is 0.955.

Question: Which switch fluorescence ratio does the source give for ACTGACACGG here?
Answer: Its switch fluorescence ratio is 1.16.

Question: How did the switch fluorescence ratio turn out when AGTTCTGGAC was run?
Answer: The switch fluorescence ratio was 1.03.

Question: How did the switch fluorescence ratio turn out when TTCGCTACCG was run?
Answer: The switch fluorescence ratio was 0.996.

Question: With ATGTGGAATC as the sequence, how does the switch fluorescence ratio read?
Answer: Its switch fluorescence ratio is 1.03.

Question: Which switch fluorescence ratio does the source give for GGGCAACC here?
Answer: Its switch fluorescence ratio is 1.04.

Question: Which switch fluorescence ratio does the source give for AGTAGTAATG here?
Answer: Its switch fluorescence ratio is 0.973.

Question: How did the switch fluorescence ratio turn out when TTCGGTTCAT was run?
Answer: Its switch fluorescence ratio is 1.13.

Question: With AATCTAAAGC as the sequence, how does the switch fluorescence ratio read?
Answer: The switch fluorescence ratio was 1.01.

Question: How did the switch fluorescence ratio turn out when GGCATCCTTT was run?
Answer: Its switch fluorescence ratio is 1.04.

Question: With TGTTTCGCGC as the sequence, how does the switch fluorescence ratio read?
Answer: Its switch fluorescence ratio is 1.02.

Question: ATAAAGTTAT was tested. Which switch fluorescence ratio did it give?
Answer: Its switch fluorescence ratio is 1.

Question: GAGCAGTCTC was tested. Which switch fluorescence ratio did it give?
Answer: The switch fluorescence ratio was 1.23.

Question: For ATATTTGAAG, which switch fluorescence ratio is on record?
Answer: The switch fluorescence ratio was 1.01.

Question: How did the switch fluorescence ratio turn out when AATCATTTAC was run?
Answer: Its switch fluorescence ratio is 1.34.

Question: How did the switch fluorescence ratio turn out when GAAAGAAAAC was run?
Answer: The switch fluorescence ratio was 1.05.

Question: With GGCTAATGTG as the sequence, how does the switch fluorescence ratio read?
Answer: Its switch fluorescence ratio is 0.988.

Question: How did the switch fluorescence ratio turn out when GCTAGTAATA was run?
Answer: The switch fluorescence ratio was 1.05.

Question: With GTTTAAGCCC as the sequence, how does the switch fluorescence ratio read?
Answer: The switch fluorescence ratio was 1.01.

Question: CGCATTGCCT was tested. Which switch fluorescence ratio did it give?
Answer: The switch fluorescence ratio was 1.09.

Question: How did the switch fluorescence ratio turn out when ACTCTATGCG was run?
Answer: Its switch fluorescence ratio is 0.99.

Question: How did the switch fluorescence ratio turn out when CGATGCTGGG was run?
Answer: Its switch fluorescence ratio is 1.07.

Question: How did the switch fluorescence ratio turn out when AACTAAAATT was run?
Answer: Its switch fluorescence ratio is 1.01.

Question: For GGAGTACGAT, which switch fluorescence ratio is on record?
Answer: Its switch fluorescence ratio is 1.03.

Question: Which switch fluorescence ratio does the source give for CGTGACTCGT here?
Answer: Its switch fluorescence ratio is 0.994.

Question: How did the switch fluorescence ratio turn out when TGAAGCACGG was run?
Answer: The switch fluorescence ratio was 1.2.

Question: Which switch fluorescence ratio does the source give for GCCCTCGGGA here?
Answer: The switch fluorescence ratio was 1.02.

Question: With GTTAGCGAGG as the sequence, how does the switch fluorescence ratio read?
Answer: Its switch fluorescence ratio is 1.04.

Question: With CTGGGATGGT as the sequence, how does the switch fluorescence ratio read?
Answer: The switch fluorescence ratio was 0.994.

Question: With AGTAGCACGG as the sequence, how does the switch fluorescence ratio read?
Answer: Its switch fluorescence ratio is 1.04.

Question: With ATTGGTTATA as the sequence, how does the switch fluorescence ratio read?
Answer: The switch fluorescence ratio was 0.946.

Question: How did the switch fluorescence ratio turn out when TCTTATATGT was run?
Answer: Its switch fluorescence ratio is 0.955.

Question: ACACACTAAT was tested. Which switch fluorescence ratio did it give?
Answer: The switch fluorescence ratio was 1.23.

Question: Which switch fluorescence ratio does the source give for AAATAACGCC here?
Answer: Its switch fluorescence ratio is 1.03.

Question: With GAGCGCGCGT as the sequence, how does the switch fluorescence ratio read?
Answer: The switch fluorescence ratio was 0.98.

Question: GTCACAAGA was tested. Which switch fluorescence ratio did it give?
Answer: The switch fluorescence ratio was 0.997.

Question: How did the switch fluorescence ratio turn out when ACGAGAACCA was run?
Answer: The switch fluorescence ratio was 1.02.

Question: CGTAGAGCGT was tested. Which switch fluorescence ratio did it give?
Answer: The switch fluorescence ratio was 0.975.

Question: AGCTGAGTAT was tested. Which switch fluorescence ratio did it give?
Answer: The switch fluorescence ratio was 1.03.

Question: GATAATGCCT was tested. Which switch fluorescence ratio did it give?
Answer: Its switch fluorescence ratio is 1.09.

Question: GAGGTCCGCT was tested. Which switch fluorescence ratio did it give?
Answer: Its switch fluorescence ratio is 1.08.

Question: For GCAACACTAC, which switch fluorescence ratio is on record?
Answer: Its switch fluorescence ratio is 2.57.

Question: Which switch fluorescence ratio does the source give for GCTTTTTTCG here?
Answer: The switch fluorescence ratio was 0.99.

Question: GGGCAAGTCC was tested. Which switch fluorescence ratio did it give?
Answer: The switch fluorescence ratio was 1.03.

Question: GCATGGGATA was tested. Which switch fluorescence ratio did it give?
Answer: Its switch fluorescence ratio is 0.99.

Question: How did the switch fluorescence ratio turn out when GTAATTCCGG was run?
Answer: Its switch fluorescence ratio is 0.995.

Question: Which switch fluorescence ratio does the source give for GCTTTGTAGG here?
Answer: Its switch fluorescence ratio is 1.03.

Question: How did the switch fluorescence ratio turn out when GTATCACGGT was run?
Answer: Its switch fluorescence ratio is 1.03.

Question: With GGCAAATCAC as the sequence, how does the switch fluorescence ratio read?
Answer: The switch fluorescence ratio was 1.09.

Question: How did the switch fluorescence ratio turn out when GGGCACCCCT was run?
Answer: Its switch fluorescence ratio is 1.01.

Question: For CGTCCATTAG, which switch fluorescence ratio is on record?
Answer: Its switch fluorescence ratio is 1.06.

Question: CACGTCTCCC was tested. Which switch fluorescence ratio did it give?
Answer: Its switch fluorescence ratio is 1.16.

Question: Which switch fluorescence ratio does the source give for TTGGTAAATA here?
Answer: The switch fluorescence ratio was 1.03.

Question: CGAGTAAAGT was tested. Which switch fluorescence ratio did it give?
Answer: The switch fluorescence ratio was 0.984.

Question: Which switch fluorescence ratio does the source give for TTAACCGATG here?
Answer: Its switch fluorescence ratio is 1.04.

Question: How did the switch fluorescence ratio turn out when CACAGAACCG was run?
Answer: The switch fluorescence ratio was 1.14.

Question: Which switch fluorescence ratio does the source give for ATATTCTTGA here?
Answer: Its switch fluorescence ratio is 0.95.

Question: With ATATTTATGT as the sequence, how does the switch fluorescence ratio read?
Answer: Its switch fluorescence ratio is 1.01.

Question: GGCACCGAAC was tested. Which switch fluorescence ratio did it give?
Answer: Its switch fluorescence ratio is 1.24.

Question: Which switch fluorescence ratio does the source give for CTAAACAGCG here?
Answer: Its switch fluorescence ratio is 0.978.

Question: With CGAGTACTTA as the sequence, how does the switch fluorescence ratio read?
Answer: Its switch fluorescence ratio is 0.989.

Question: GCGAGCTAGA was tested. Which switch fluorescence ratio did it give?
Answer: Its switch fluorescence ratio is 0.986.

Question: For CATGGTGGGC, which switch fluorescence ratio is on record?
Answer: Its switch fluorescence ratio is 0.902.

Question: How did the switch fluorescence ratio turn out when TAGTGGTACC was run?
Answer: The switch fluorescence ratio was 0.956.

Question: With AATACGCCAT as the sequence, how does the switch fluorescence ratio read?
Answer: Its switch fluorescence ratio is 2.31.

Question: GATTCTCATG was tested. Which switch fluorescence ratio did it give?
Answer: Its switch fluorescence ratio is 0.979.

Question: For ACGGTAATAG, which switch fluorescence ratio is on record?
Answer: Its switch fluorescence ratio is 1.38.

Question: How did the switch fluorescence ratio turn out when GTATTAACTC was run?
Answer: The switch fluorescence ratio was 1.01.

Question: Which switch fluorescence ratio does the source give for AGATGGGTCT here?
Answer: The switch fluorescence ratio was 0.98.

Question: Which switch fluorescence ratio does the source give for GTGCATGAAC here?
Answer: The switch fluorescence ratio was 1.05.

Question: AAGCCATTTG was tested. Which switch fluorescence ratio did it give?
Answer: Its switch fluorescence ratio is 0.994.

Question: Which switch fluorescence ratio does the source give for GCACGTAGC here?
Answer: Its switch fluorescence ratio is 1.1.

Question: TATGTATTCG was tested. Which switch fluorescence ratio did it give?
Answer: The switch fluorescence ratio was 1.06.

Question: For TATGAGGGTA, which switch fluorescence ratio is on record?
Answer: Its switch fluorescence ratio is 0.969.

Question: Which switch fluorescence ratio does the source give for GCGAGAGCGG here?
Answer: Its switch fluorescence ratio is 0.989.

Question: ACCAACATAT was tested. Which switch fluorescence ratio did it give?
Answer: Its switch fluorescence ratio is 1.1.

Question: For GCCGTTCTGG, which switch fluorescence ratio is on record?
Answer: Its switch fluorescence ratio is 0.967.

Question: For TGGACCGTC, which switch fluorescence ratio is on record?
Answer: The switch fluorescence ratio was 0.995.

Question: How did the switch fluorescence ratio turn out when TCAAGGTAGT was run?
Answer: The switch fluorescence ratio was 1.47.

Question: For GCCAATGGAA, which switch fluorescence ratio is on record?
Answer: The switch fluorescence ratio was 1.05.

Question: For GTGGGTCTAG, which switch fluorescence ratio is on record?
Answer: The switch fluorescence ratio was 0.963.

Question: GAAACAACGC was tested. Which switch fluorescence ratio did it give?
Answer: The switch fluorescence ratio was 1.05.

Question: ATATTATTTG was tested. Which switch fluorescence ratio did it give?
Answer: Its switch fluorescence ratio is 1.01.

Question: Which switch fluorescence ratio does the source give for CTTATGGAAA here?
Answer: Its switch fluorescence ratio is 1.01.

Question: With ATACGTTGGC as the sequence, how does the switch fluorescence ratio read?
Answer: The switch fluorescence ratio was 1.11.
